Reference: the supplement of paper PMC11417369
± gives the standard deviation of the averaged measurements. The list shows a part of the results.

The sequences below were run on PfAP2-I AP2 domain 3 (GST-tagged) (assay: gcPBM binding intensity (ln(normalized median fluorescence intensity)); higher = stronger DNA binding).
Summary of the method: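 An Agilent 4 × 180k array carrying primer-extended double-stranded 36-bp intergenic genomic probes and negative controls received GST-tagged P. falciparum DNA-binding domains expressed in E. coli, about 25 μg on average, for 1 h. The binding buffer contained 1× PBS, 1% milk, 0.2 mg/ml BSA, 0.5% salmon testes DNA and 0.03% Triton X-100. Binding intensity is the top Masliner-normalised natural-log median intensity across replicate spots of either probe orientation, read after Alexa488 anti-GST antibody staining and a 488 nm scan.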

| Sequence | gcPBM binding intensity (ln) |
| --- | --- |
| ATATAATATATGTATACACACATATTATATAATATT [CACACA_site3699] | 7.56 ± 0.54 |
| CAATATAAAAAACACACACACAAACATATATTTATA [CACACA_site3703] | 7.67 ± 0.36 |
| TGTCGGCTTAGATTAGTGCACTGAAAAATGAAGTAT [GTGCAC_site9919] | 11.8 ± 0.28 |
| TATTTATATAAAAATACACACATGAATGGATATATA [CACACA_site6335] | 7.57 ± 0.45 |
| GTAACATACACATATACACACACACCGATATACATA [CACACA_site8278] | 8.12 ± 0.45 |
| AATATAGTTCAATATACACACCCCTTTATTCATTTT [CACACA_site3625] | 7.88 ± 0.73 |
| ATTAATTAAGGCACATGTACAAAATATTTTTTATAA [XGTACX_site1964] | 9.95 ± 0.45 |
| TATACAATCTATATAACACACATATTTATATAAAAT [CACACA_site1797] | 7.72 ± 0.38 |
| ATTTAACTAAAGAAGGCACACGTGTTTAAAAAAAAA [CACACA_site5241] | 8.18 ± 0.79 |
| CATTTATATATATACACACACACAAAAAAAAAAAAA [CACACA_site2645] | 8.13 ± 0.49 |
| AATATTATATTTTATTGTACTAATAAAAATATATGC [XGTACX_site5435] | 7.79 ± 0.2 |
| GACGTTATGATACACATACACACAGGGATAAAAAAT [CACACA_site2882] | 8.06 ± 0.53 |
| TATATATATATATATGCATGTACATATATTTGTTAT [TGCATGCA_site379] | 9.45 ± 0.14 |
| TTTTTTTTTTTTTTTTGTACTTAAAAATTTATATAA [XGTACX_site7718] | 8.03 ± 0.64 |
| ATAATATGAAATATAACACACATATATAAAAACATT [CACACA_site866] | 7.92 ± 0.57 |
| TATTTTTTTTTTGGGTGTACCTTTTATATATATTGT [XGTACX_site5036] | 7.97 ± 0.49 |
| TATACACATTTTTATACACACTTGTTTTATAAAACG [CACACA_site6480] | 8.06 ± 0.45 |
| CATTTCGAAAAAAAATGTACTTATTATATTTATATA [XGTACX_site6752] | 7.51 ± 0.31 |
| TTATCTTACATAAATTATAACAATAATATGTGTATA [XGTACX_negctrl_site379] | 7.26 ± 0.33 |
| TGTATATATTATAAAAGTACATAATATTCTTAGATA [XGTACX_site5623] | 7.48 ± 0.23 |
| ACATCTCTTATATATTCACACACATATATATAATTA [CACACA_site8424] | 8.41 ± 0.52 |
| GCACATCTATATGAAACACACATGGAAACATCTCTT [CACACA_site7793] | 7.84 ± 0.64 |
| TTTTTTTTTTAATTCGCACACTGTCTTCATGCAATT [CACACA_site4882] | 8.79 ± 0.64 |
| TTAAAAAATTTTTAAGCACACACATAGATAATATAT [CACACA_site8440] | 8.76 ± 0.32 |
| AGCATTAAAAATGGAATGGAATTAAGCTATATATTA [CACACA_negctrl_site1571] | 7.47 ± 0.61 |
